Experimental data taken from PMC6290075.
Results are given in words; binding and its absence hold for the method and conditions named. In cells and extracts the contact can be indirect. Some results given as binding are weak or reduced against the parent protein; the word gives no strength.

The chains behind the UniProt entries cited, without tags or fusion partners.
UniProt Q9BTV5: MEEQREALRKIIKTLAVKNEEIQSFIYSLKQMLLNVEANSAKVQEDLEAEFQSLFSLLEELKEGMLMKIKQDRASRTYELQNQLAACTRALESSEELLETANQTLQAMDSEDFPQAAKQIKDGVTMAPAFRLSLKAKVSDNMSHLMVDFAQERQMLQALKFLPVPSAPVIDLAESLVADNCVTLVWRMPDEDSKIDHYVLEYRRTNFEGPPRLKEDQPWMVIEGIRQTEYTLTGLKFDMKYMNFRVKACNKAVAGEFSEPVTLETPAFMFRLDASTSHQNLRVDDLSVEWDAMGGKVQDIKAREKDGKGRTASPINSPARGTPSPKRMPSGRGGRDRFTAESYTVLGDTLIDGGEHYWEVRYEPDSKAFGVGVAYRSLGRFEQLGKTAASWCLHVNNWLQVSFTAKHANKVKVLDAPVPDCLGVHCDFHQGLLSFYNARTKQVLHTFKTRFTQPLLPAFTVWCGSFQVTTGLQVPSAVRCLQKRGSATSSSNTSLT
UniProt Q5VT06: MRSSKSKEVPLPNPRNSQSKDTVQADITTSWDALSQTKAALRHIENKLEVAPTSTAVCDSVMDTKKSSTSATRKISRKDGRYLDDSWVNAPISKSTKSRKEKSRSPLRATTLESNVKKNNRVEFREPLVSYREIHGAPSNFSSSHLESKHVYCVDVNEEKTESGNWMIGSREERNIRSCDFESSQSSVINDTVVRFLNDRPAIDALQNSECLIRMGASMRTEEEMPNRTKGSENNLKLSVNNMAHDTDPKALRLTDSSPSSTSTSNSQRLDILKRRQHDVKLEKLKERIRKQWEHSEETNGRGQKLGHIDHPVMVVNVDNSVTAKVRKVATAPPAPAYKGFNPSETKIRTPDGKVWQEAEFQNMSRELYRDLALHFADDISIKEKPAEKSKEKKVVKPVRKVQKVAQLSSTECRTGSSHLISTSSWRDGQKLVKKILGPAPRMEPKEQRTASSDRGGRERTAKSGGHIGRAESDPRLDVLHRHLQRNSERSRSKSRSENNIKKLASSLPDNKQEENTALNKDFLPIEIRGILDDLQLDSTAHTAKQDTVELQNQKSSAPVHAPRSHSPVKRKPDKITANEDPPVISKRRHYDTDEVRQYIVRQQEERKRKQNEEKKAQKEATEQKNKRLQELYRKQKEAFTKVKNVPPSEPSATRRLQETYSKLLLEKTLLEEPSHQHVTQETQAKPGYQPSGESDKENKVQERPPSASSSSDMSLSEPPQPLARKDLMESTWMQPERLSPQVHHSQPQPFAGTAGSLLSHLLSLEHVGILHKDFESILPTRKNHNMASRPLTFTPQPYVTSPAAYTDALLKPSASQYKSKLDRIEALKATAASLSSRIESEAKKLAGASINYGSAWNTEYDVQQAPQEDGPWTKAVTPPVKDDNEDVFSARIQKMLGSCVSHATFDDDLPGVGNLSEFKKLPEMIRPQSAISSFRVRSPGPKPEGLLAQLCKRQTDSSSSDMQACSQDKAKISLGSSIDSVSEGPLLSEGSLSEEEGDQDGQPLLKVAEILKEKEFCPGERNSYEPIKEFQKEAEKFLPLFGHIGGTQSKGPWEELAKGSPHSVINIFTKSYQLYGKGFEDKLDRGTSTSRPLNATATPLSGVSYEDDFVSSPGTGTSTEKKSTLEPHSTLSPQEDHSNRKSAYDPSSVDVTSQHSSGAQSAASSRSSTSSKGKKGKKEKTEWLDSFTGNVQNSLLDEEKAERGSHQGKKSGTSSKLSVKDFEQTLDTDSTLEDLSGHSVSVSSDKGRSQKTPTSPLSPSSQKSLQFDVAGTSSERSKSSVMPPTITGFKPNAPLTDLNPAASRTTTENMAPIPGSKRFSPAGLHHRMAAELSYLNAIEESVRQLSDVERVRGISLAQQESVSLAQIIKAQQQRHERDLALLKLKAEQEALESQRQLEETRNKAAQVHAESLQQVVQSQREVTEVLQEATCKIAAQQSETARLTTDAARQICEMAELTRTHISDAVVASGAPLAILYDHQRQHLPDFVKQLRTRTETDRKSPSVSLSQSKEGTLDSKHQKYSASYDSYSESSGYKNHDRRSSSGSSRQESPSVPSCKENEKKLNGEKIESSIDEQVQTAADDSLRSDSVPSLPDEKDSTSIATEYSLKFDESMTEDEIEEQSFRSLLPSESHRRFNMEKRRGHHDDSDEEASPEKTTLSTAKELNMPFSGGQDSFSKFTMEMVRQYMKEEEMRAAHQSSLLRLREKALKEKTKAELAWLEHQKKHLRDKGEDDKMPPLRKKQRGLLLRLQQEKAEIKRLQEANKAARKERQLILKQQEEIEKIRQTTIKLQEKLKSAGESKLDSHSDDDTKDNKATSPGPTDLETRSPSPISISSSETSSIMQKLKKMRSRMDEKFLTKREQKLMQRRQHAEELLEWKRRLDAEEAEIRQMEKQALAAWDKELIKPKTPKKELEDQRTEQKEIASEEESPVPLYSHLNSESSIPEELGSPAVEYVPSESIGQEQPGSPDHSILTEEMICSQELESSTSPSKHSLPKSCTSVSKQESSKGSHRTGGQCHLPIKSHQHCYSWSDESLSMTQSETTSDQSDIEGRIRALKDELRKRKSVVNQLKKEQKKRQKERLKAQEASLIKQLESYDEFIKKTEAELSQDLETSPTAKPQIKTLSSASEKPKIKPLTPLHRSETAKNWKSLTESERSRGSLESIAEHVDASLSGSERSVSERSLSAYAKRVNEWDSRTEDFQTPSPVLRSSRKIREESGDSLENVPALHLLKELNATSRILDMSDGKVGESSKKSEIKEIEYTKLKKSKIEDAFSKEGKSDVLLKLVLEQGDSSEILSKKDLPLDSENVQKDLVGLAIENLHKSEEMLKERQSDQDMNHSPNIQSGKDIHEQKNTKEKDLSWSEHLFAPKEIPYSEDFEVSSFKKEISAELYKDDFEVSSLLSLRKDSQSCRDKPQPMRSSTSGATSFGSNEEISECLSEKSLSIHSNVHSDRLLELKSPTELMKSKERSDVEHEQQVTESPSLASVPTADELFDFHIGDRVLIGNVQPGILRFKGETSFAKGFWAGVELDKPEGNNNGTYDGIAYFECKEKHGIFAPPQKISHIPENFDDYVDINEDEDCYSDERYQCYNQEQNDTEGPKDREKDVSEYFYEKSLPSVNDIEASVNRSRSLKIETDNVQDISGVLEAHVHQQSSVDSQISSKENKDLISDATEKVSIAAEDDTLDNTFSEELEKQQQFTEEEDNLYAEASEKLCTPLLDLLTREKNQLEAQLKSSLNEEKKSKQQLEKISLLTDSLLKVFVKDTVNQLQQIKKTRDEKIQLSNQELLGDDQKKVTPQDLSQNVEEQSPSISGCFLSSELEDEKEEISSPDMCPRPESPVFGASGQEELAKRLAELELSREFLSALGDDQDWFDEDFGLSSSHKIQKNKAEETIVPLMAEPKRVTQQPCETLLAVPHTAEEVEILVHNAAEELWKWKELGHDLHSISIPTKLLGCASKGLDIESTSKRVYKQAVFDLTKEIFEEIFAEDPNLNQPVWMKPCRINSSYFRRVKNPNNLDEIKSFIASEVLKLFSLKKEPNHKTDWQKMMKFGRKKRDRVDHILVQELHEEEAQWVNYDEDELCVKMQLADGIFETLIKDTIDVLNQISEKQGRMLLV

T1: FOP, endogenous in RPE-1 cells (human (endogenous in RPE-1)) (UniProt O95684)
T1 sequence: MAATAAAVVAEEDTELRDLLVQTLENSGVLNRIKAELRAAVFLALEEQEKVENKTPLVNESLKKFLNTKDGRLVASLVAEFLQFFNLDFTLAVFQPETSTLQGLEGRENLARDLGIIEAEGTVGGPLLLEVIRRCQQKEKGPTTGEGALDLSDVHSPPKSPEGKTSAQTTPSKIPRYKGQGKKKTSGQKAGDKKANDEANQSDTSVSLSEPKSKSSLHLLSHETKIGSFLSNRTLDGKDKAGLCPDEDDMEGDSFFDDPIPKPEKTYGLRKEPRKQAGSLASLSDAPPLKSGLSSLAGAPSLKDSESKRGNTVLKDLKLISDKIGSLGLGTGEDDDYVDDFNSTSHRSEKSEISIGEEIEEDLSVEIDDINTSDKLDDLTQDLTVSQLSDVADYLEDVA

B1: FOP, endogenous in HEK293T cells (protein, UniProt O95684 1-399)
chain: T1 sequence
B2: FOP, endogenous in RPE-1 cells (protein, UniProt O95684 1-399)
chain: T1 sequence
B3: CEP19, endogenous in HEK293T cells (protein, UniProt Q96LK0 1-163)
chain: MMCTAKKCGIRFQPPAIILIYESEIKGKIRQRIMPVRNFSKFSDCTRAAEQLKNNPRHKSYLEQVSLRQLEKLFSFLRGYLSGQSLAETMEQIQRETTIDPEEDLNKLDDKELAKRKSIMDELFEKNQKKKDDPNFVYDIEVEFPQDDQLQSCGWDTESADEF

Columns and labels:
Flag-FSD1 = Flag-FSD1 (UniProt Q9BTV5); assay: co-IP; Flag-FSD1 transfected into HEK293T cells, harvested 24 h after transfection; Flag M2 beads with cell extract at 4 °C for 2 h; immunoblot of endogenous proteins
[1] = target: FSD1 (fibronectin type III and SPRY domain containing 1), endogenous (human (endogenous in RPE-1)) (UniProt Q9BTV5); assay: co-IP; endogenous proteins, RPE-1 cells lysed in ELB buffer (50 mM HEPES pH 7.0, 250 mM NaCl, 5 mM EDTA, 0.1% NP-40, 10% glycerol); immunoprecipitated with anti-FSD1, anti-CAP350, anti-FOP or control IgG at 4 °C overnight; immunoblot
[2] = target: CAP350, endogenous in RPE-1 cells (human (endogenous in RPE-1)) (UniProt Q5VT06); assay: as above
[3] = target: T1, FOP, endogenous in RPE-1 cells (human (endogenous in RPE-1)); assay: as above

| Molecule | binding (Flag-FSD1) | binding [1] | further results |
| --- | --- | --- | --- |
| CAP350, endogenous in HEK293T cells (from UniProt Q5VT06 1-3117) | binds |  |  |
| CAP350, endogenous in RPE-1 cells (from UniProt Q5VT06 1-3117) |  | binds |  |
| FSD1 (fibronectin type III and SPRY domain containing 1), endogenous (from UniProt Q9BTV5 1-496) |  |  | binding [2]: binds; binding [3]: binds |
| B1 | binds |  |  |
| B2 |  | binds |  |
| B3 | no binding |  |  |
